Source: article PMC5303829, “A CAF40-binding motif facilitates recruitment of the CCR4-NOT complex to mRNAs targeted by Drosophila Roquin” (Nature Communications, 2017)
Results are given in words; binding and its absence hold for the method and conditions named. In cells and extracts the contact can be indirect. Some results given as binding are weak or reduced against the parent protein; the word gives no strength. Where a sequence is shown, tags or fusion partners need not be part of it.

Amino acid sequences for entries named in this document (tags omitted).
UniProt A5YKK6: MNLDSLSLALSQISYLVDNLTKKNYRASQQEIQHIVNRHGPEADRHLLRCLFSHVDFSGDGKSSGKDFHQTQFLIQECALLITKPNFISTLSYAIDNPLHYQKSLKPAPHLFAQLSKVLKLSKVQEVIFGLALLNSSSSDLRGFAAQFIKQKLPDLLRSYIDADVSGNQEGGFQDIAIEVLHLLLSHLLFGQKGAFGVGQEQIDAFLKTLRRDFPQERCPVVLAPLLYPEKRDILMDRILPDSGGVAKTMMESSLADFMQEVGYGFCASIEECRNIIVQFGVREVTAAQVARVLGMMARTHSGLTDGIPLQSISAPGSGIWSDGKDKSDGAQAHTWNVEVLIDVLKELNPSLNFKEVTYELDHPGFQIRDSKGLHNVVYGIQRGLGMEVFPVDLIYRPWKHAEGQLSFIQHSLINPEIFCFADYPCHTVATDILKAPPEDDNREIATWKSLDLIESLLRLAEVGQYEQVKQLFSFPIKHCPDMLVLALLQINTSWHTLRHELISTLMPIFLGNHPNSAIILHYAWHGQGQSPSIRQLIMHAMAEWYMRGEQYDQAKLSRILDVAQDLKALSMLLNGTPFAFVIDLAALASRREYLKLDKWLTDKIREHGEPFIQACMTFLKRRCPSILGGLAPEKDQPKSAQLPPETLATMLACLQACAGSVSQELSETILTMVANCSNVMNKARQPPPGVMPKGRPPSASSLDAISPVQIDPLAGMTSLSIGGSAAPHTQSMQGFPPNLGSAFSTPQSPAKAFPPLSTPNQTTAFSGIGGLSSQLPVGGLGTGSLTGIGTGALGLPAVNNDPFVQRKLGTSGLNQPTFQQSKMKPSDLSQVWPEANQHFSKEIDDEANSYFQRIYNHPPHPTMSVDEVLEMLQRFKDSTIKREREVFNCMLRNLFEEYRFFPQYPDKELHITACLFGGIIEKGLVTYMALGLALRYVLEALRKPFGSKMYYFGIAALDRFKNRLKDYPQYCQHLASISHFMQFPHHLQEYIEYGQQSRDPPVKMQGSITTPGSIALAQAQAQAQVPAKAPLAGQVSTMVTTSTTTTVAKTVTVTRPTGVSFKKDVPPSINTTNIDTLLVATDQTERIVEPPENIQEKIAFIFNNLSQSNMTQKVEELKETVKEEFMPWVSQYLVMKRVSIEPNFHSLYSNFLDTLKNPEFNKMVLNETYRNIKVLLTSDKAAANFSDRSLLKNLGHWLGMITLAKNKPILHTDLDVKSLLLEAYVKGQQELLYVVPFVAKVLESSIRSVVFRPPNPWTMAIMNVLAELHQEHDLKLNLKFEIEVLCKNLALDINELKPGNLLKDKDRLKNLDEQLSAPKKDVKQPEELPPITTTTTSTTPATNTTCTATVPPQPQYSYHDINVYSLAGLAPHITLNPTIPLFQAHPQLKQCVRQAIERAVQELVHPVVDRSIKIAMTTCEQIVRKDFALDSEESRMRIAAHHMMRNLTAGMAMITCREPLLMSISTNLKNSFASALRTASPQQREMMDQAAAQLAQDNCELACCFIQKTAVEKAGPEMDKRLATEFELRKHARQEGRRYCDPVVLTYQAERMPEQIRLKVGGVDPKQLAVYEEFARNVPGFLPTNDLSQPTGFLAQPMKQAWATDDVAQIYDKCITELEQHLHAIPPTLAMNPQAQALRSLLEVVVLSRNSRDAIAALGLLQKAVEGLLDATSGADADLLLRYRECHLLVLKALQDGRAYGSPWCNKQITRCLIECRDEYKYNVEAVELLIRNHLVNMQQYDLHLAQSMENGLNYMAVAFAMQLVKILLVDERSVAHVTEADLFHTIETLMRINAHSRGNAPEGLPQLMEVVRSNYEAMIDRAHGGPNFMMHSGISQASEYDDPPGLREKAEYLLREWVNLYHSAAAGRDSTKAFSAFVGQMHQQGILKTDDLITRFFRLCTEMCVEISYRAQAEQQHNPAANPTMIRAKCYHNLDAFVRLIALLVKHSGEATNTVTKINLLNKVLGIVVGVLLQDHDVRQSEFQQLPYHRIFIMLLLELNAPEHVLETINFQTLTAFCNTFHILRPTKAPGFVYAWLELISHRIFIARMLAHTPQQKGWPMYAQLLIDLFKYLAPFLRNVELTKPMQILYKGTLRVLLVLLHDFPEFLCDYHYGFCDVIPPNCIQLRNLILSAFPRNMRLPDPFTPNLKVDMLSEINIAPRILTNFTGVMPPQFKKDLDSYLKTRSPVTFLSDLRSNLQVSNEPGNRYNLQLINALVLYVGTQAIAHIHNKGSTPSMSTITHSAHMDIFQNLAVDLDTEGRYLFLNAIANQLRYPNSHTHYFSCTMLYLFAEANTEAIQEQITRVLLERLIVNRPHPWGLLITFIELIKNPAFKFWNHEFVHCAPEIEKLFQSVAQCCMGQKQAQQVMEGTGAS
UniProt Q9NZN8: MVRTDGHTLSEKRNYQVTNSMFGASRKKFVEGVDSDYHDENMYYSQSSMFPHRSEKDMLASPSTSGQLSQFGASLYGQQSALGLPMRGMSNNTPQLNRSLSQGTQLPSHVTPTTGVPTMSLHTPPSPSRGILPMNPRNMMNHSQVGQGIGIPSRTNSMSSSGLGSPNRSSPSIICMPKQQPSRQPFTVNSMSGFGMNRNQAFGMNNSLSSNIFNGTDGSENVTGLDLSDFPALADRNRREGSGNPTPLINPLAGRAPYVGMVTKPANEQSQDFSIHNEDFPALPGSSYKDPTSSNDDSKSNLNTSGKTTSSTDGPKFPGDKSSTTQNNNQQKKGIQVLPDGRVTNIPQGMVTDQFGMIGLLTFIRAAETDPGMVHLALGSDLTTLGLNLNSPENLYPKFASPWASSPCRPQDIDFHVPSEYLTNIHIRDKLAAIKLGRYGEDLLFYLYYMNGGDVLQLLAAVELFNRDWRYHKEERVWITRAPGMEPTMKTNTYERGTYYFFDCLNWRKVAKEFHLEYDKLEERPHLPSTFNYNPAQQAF
UniProt O75175: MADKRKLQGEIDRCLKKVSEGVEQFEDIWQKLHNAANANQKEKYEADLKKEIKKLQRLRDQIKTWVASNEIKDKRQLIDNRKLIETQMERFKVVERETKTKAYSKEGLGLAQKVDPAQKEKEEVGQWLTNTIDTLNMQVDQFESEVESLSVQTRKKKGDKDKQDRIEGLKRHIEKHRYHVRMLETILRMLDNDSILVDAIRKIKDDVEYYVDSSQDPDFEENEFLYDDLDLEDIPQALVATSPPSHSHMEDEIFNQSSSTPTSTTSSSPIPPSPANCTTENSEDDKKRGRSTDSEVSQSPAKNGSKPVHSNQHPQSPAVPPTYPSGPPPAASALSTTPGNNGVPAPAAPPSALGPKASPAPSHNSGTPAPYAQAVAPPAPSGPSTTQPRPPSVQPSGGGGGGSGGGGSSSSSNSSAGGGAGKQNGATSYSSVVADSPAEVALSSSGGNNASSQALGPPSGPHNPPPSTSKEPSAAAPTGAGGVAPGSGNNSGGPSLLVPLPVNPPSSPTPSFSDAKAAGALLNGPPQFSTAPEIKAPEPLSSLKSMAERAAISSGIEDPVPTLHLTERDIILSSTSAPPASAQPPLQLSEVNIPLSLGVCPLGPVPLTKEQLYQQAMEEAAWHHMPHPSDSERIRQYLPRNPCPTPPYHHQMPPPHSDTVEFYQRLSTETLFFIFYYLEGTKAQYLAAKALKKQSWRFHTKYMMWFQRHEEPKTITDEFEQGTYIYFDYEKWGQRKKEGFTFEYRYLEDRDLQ

Experiments:
[1] = target: T1, V5-SBP-tagged Hs Roquin2 (full-length) (human) (UniProt Q9HBD1); experiment: pull-down; SBP pulldown from lysates of HEK293T cells expressing V5-SBP-tagged Roquin proteins (bait); endogenous NOT1, NOT2 and NOT3 in the bound fractions detected by western blotting
T1 sequence: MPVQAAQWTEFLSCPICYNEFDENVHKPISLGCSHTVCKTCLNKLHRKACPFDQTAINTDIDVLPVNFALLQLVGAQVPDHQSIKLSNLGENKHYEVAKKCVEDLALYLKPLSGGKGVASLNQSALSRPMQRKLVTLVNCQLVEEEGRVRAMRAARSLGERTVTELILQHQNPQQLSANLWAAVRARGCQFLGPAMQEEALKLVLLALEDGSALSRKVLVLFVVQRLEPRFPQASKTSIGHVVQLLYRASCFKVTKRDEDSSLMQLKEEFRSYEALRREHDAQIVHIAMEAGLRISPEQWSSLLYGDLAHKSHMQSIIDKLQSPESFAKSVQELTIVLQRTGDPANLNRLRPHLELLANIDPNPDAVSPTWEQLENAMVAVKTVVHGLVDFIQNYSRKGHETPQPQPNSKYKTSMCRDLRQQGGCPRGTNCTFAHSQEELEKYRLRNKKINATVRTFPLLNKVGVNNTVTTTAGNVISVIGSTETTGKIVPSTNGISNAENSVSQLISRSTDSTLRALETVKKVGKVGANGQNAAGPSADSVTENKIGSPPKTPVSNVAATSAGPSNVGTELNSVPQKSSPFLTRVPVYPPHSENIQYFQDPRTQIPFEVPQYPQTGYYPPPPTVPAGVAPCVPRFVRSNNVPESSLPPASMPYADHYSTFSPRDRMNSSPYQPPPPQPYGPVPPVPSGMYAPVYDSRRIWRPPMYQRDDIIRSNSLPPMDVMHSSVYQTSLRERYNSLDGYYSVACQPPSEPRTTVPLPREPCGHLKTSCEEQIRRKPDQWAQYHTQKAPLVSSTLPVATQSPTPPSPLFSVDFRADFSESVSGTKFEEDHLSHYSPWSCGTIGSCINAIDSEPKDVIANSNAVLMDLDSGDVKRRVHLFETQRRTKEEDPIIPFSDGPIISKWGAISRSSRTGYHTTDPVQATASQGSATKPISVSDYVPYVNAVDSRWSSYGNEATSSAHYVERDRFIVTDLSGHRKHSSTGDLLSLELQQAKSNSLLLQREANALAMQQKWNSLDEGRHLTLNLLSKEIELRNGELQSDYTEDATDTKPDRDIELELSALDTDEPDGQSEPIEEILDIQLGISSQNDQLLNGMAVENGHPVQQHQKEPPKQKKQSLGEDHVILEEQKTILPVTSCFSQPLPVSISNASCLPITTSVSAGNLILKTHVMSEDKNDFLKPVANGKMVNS

[2] = target: T2, V5-SBP-tagged Hs Roquin1 (full-length) (human) (UniProt Q5TC82); experiment: as above
T2 sequence: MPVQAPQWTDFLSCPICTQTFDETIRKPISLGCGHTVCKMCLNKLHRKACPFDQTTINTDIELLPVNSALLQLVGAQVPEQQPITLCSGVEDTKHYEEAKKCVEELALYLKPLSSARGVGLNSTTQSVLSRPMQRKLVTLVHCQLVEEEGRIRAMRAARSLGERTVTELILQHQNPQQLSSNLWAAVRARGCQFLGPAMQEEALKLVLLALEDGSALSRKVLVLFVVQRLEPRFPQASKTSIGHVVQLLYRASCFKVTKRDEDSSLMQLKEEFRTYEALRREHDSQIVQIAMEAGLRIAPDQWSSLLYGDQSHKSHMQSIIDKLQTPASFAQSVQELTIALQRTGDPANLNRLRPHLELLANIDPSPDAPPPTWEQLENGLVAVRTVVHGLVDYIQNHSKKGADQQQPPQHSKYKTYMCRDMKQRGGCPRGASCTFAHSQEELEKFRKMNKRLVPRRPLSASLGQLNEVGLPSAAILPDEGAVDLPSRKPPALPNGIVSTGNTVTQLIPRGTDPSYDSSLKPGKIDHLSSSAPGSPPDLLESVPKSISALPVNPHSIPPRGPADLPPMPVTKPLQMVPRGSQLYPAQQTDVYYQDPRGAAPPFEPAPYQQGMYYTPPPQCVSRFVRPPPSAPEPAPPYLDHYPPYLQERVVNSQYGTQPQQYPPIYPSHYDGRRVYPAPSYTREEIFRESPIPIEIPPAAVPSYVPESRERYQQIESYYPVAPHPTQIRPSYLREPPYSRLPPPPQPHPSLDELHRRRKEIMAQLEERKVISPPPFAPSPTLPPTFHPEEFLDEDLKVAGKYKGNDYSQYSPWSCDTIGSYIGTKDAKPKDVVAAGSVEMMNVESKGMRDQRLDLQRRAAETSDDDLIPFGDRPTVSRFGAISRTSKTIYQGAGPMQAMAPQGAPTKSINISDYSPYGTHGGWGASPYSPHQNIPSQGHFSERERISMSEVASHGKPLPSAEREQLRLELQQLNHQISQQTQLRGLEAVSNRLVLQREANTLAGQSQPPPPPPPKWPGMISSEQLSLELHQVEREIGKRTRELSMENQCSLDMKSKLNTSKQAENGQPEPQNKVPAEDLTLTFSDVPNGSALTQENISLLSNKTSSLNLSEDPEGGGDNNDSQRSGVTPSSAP

| Substance | binding [1] | binding [2] |
| --- | --- | --- |
| endogenous NOT1 (HEK293T) (from UniProt A5YKK6 1-2376) | binds | binds |
| endogenous NOT2 (HEK293T) (from UniProt Q9NZN8 1-540) | binds | binds |
| endogenous NOT3 (HEK293T) (from UniProt O75175 1-753) | binds | binds |
